# According to PubChem BioAssay (Tox21):
# Several values for one entry are separate records, joined by “and”; a condition that tells them apart may be missing. Identical values can stand only once. The shares of active, inactive and inconclusive entries below differ from those in the screen. A potency beside an inconclusive call is a rough fit, not a confirmed value. A structure can be active in one record and inactive in another. Activity calls are given as the source filed them. Calls come from the whole dose curve; as a rule, active = well fitted cell-killing curve with a large enough effect in the repeat runs; inconclusive = weak or mixed curves; inactive = no such curve, though single readings can be large or run the other way.
# Test: qHTS assay to identify small molecule agonists of the peroxisome proliferator-activated receptor delta (PPARd) signaling pathway - cell viability counter screen (AID 743211); note: nearly all actives have a fitted effect of over 55% in size
# Conditions: PPARd-bla HEK293H viability, CellTiter-Glo luminescence, 17 h; activity change, negative = cytotoxicity: at 62.6 µM (top of the series) unless noted
# Source text: U.S. Tox21 Program National Center for Advancing Translational Sciences [NCATS] NIH Chemical Genomics Center [NCGC] U.S. Environmental Protection Agency [EPA] National Institutes of Environmental Health Sciences [NIEHS] National Toxicology Program [NTP] U.S. Food and Drug Administration [FDA] Tox21 Assay Overview: The peroxisome proliferator-activated receptors (PPARs) are lipid-activated transcription factors of the nuclear receptor superfamily with three distinct subtypes namely PPAR alpha, PPAR delta (PPARd) and PPAR gamma. All these subtypes heterodimerizes with Retinoid X receptor (RXR) and have different physiological functions. […] To identify the compounds that activate PPAR-delta signaling, GeneBLAzer PPAR delta UAS-bla HEK293H cell line (Invitrogen, Carlsbad, CA, USA) containing a beta-lactamase reporter gene under the control of an Upstream Activator Sequence (UAS) was used to screen the Tox21 compound library. The cytotoxicity of the Tox21 compound library against the PPARd-bla cell line was tested in parallel by measuring the cell viability using CellTiter-Glo assay (Promega, Madison, WI) in the same wells.
# Tox21 Assay Protocol Summary: PPARd-bla cells were dispensed at 3000 cells/6uL/well in 1536-well black wall/clear bottom plates using a Multidrop Combi (Thermo Fisher Scientific, Waltham, MA) dispenser. After the assay plates were incubated at 37 C and 5% CO2 for 5 h, 23 nL of compounds dissolved in DMSO, positive controls or DMSO only was transferred to the assay plate by a Pintool station (Kalypsys, San Diego, CA). The assay plates were incubated at 37C for 17 h. After 1 uL of LiveBLAzerTM B/G FRET substrate was added using a Bioraptr Flying Reagent Dispenser (FRD) workstation (Beckman Coulter, Indianapolis, IN, USA), the plates were incubated at room temperature for 2 h, and fluorescence intensity was measured by an Envision plate reader (PerkinElmer, Shelton, CT). For cell viability readout that measures cytotoxicity, 3 ul/well of CellTiter-Glo reagent was added into the assay plates using a Bioraptr FRD. After 30 min incubation at room temperature, the luminescence intensity in the plates was measured using a ViewLux plate reader (PerkinElmer).
# % is set by controls: 0 for no effect and ±100 for the full control effect; potency is the fitted concentration of half-maximal effect; tags give direction and shape of the fitted curve.
SMILES,Potency,"activity change, negative = cytotoxicity"
O=c1[nH]c(=O)[nH]c(=O)[nH]1,"inconclusive: 61.3 µM [cytotoxic, partial curve, poor fit]",
Nc1nc(N)c(N)c(N)n1,"inconclusive: 3.91 µM [cytotoxic, single point]",
CCCOC(=O)c1ccccc1C(=O)OCCC,inactive,
O=C(O)CCCOc1ccc(Cl)cc1Cl,"inconclusive: 55.9 µM [cytotoxic, partial curve, poor fit]",
CCCSP(=O)(OCC)SCCC,"inconclusive: 35.9 µM [cytotoxic, single point]",
COc1cc(OC)nc(Oc2cccc(Oc3nc(OC)cc(OC)n3)c2C(=O)O)n1,,inactive: -0.201%
CCCCCCCCCCCCCCCC[n+]1ccccc1,active: 23.7 µM [middle of 4 runs],
C[C@]12C/C(=C/O)C(=O)C[C@@H]1CC[C@@H]1[C@@H]2CC[C@@]2(C)[C@H]1CC[C@]2(C)O,"active: 49.4 µM and inconclusive: 33.5 µM [cytotoxic, partial curve, poor fit]",
CCCCCCCCCCCCCN1CC(C)OC(C)C1 (stereo not given),"inconclusive: 61.6 µM [cytotoxic, partial curve, poor fit]",
Nc1c(Cl)cc([N+](=O)[O-])cc1Cl,"inconclusive: 6.92 µM [cytotoxic, full curve]",
CC(C)N(C(=O)COc1nnc(C(F)(F)F)s1)c1ccc(F)cc1,"inconclusive: 61.6 µM [cytotoxic, single point]",
Cc1cc(C(F)(C(F)(F)F)C(F)(F)F)ccc1NC(=O)c1cccc(I)c1C(=O)NC(C)(C)CS(C)(=O)=O,"inconclusive: 5.53 µM [cytotoxic, partial curve, poor fit]",
CCCCCCCCCCCCCC[P+](CCCCCC)(CCCCCC)CCCCCC (tested in a mixture with another compound),active: 2.46 µM,
BrCCCBr,,inactive: 2.87% [at 81.1 µM]
c1coc(-c2nc3ccccc3[nH]2)c1,"inconclusive: 54.9 µM [cytotoxic, partial curve, poor fit]",
C[C@]12CCC(=O)C=C1CC[C@@H]1[C@@H]2CC[C@]2(C)C(=O)CC[C@@H]12,"inconclusive: 24.1 µM [cytotoxic, partial curve]",
CCNc1nc(NC(C)(C)C)nc(SC)n1,"inconclusive: 4.36 µM [cytotoxic, full curve, poor fit]",
Cc1ccc(-c2c(Cl)nc(C#N)n2S(=O)(=O)N(C)C)cc1,"inconclusive: 61.6 µM [cytotoxic, partial curve, poor fit]",
CC[C@H]1C[C@H]2[C@@H]3CCC4=CC(=O)CC[C@@H]4[C@H]3CC[C@]2(C)[C@H]1O,"inconclusive: 29.8 µM [cytotoxic, single point]",
O.O.O.O=C([O-])[C@H]([O-])[C@@H]([O-])C(=O)[O-].O=C([O-])[C@H]([O-])[C@@H]([O-])C(=O)[O-].[K+].[K+].[Sb+3].[Sb+3],"inconclusive: 22 µM [cytotoxic, full curve]",

SMILES,Potency,"activity change, negative = cytotoxicity"
CC(=O)Nc1cc([As](=O)(O)O)ccc1O,,inactive: -4.33%
O.O.O.O.O.O.O.O=S(=O)([O-])[O-].[Co+2],"inconclusive: 55.3 µM [cytotoxic, single point]",
O=C(OC1CCCCC1)c1ccccc1C(=O)OC1CCCCC1,active: 46 µM,
c1ccc2sc(SNC3CCCCC3)nc2c1,"inactive and inconclusive: 61.6 µM [cytotoxic, partial curve, poor fit]",
CCN(CC)C(=O)SCc1ccc(Cl)cc1,"inconclusive: 31.8 µM [rising, full curve, poor fit]",
CC(=O)OC1(c2ccccc2)CCN(CCc2ccccc2)CC1,"inconclusive: 70.2 µM [cytotoxic, single point]",
CCCCCc1cc(O)cc(O)c1,"inconclusive: 54.9 µM [cytotoxic, single point]",
N#Cc1cc(I)c(O)c(I)c1,"inconclusive: 0.871 µM [cytotoxic, full curve, poor fit]",
CC(=O)c1cc2c(cc1C)C(C)(C)C(C)CC2(C)C (stereo not given),,inactive: -25.9%
c1ccc2c(c1)sc1ccccc12,"inconclusive: 33.5 µM [cytotoxic, single point]",
O=C(O)C(F)(F)C(F)(F)C(F)(F)C(F)(F)C(F)(F)C(F)(F)C(F)(F)C(F)(F)C(F)(F)F,"inconclusive: 61.6 µM [rising, single point]",
O=C(NC(=O)c1c(F)cccc1F)Nc1cc(Cl)c(OC(F)(F)C(F)C(F)(F)F)cc1Cl (stereo not given),"inconclusive: 6.68 µM [cytotoxic, single point]",
OC[P+](CO)(CO)CO,inconclusive: 55.6 µM [cytotoxic],
Oc1c(Br)c(Br)c(Br)c(Br)c1Br,"inconclusive: 49.3 µM [cytotoxic, partial curve, poor fit]",
Nc1nc(N)nc(Cl)n1,,inactive: 1.85%
COP(=S)(Oc1cc(Cl)c(Br)cc1Cl)c1ccccc1 (stereo not given),"inconclusive: 54.9 µM [cytotoxic, partial curve, poor fit]",
C=CCOC(Cn1ccnc1)c1ccc(Cl)cc1Cl (stereo not given),"inconclusive: 55.1 µM [cytotoxic, single point]",
CC1COC(Cn2cncn2)(c2ccc(Oc3ccc(Cl)cc3)cc2Cl)O1 (stereo not given),active: 49 µM,
Nc1ccc(N=Nc2ccccc2)cc1,"inconclusive: 24.5 µM [cytotoxic, single point]",
CC(C)(O)C(Cl)(Cl)Cl,,inconclusive: 1.11% [cytotoxic]
